Laboratory results published in the supplement of paper PMC6828730.
Counter-ions that a name gives are not always drawn. The list shows a part of the results. Most values come without repeats; read them as rough.

Key:
[1] = system: hiPSC-derived cardiomyocytes; assay: time to death of most cells in well after compound addition (days); higher = less cardiotoxic; details: screen: 1; 10 µM
[2] = system: hiPSC-derived cardiomyocytes; assay: time to death of most cells in well after compound addition (days); higher = less cardiotoxic; extreme values may be limits of the assay; details: 10 µM

Compound | time to death of most cells in well [1] | time to death of most cells in well ([2]; screen: 2) | time to death of most cells in well ([2]; screen: 3) | time to death of most cells in well ([2]; screen: 4)
CNC(=O)c1cc(Oc2ccc(NC(=O)Nc3ccc(Cl)c(C(F)(F)F)c3)cc2)ccn1 [Sorafenib Tosylate] | > 7 | > 7 | > 7 | > 7
CN(C)Cc1cccc(N=C(c2ccccc2)c2c(O)[nH]c3cc(C(N)=O)ccc23)c1 | 3 | 3 | > 7 | > 7
COc1cc(N2CCC(N)CC2)ccc1Nc1ncc(Cl)c(-c2c[nH]c3ccccc23)n1 | 3 | 2 | 1.5 | 1.5
CC(C)(C)c1cc(NC(=O)Nc2ccc(-c3cn4c(n3)sc3cc(OCCN5CCOCC5)ccc34)cc2)no1 [Quizartinib (AC220)] | 3 | > 7 | > 7 | > 7
CC(C)(CCCCCC(O)CCCCCC(C)(C)C(=O)O)C(=O)O | > 7 | > 7 | > 7 | > 7
Cc1ccc(Nc2nccc(N(C)c3ccc4c(C)n(C)nc4c3)n2)cc1S(N)(=O)=O | > 7 | > 7 | > 7 | > 7
NC[C@@](O)(c1ccc(Cl)cc1)c1ccc(-c2cn[nH]c2)cc1 | 1 | 1 | 3 | 1
FC(F)(F)c1ccc(/C=C/c2nc(COc3ccc(CCCCn4ccnn4)cc3)co2)cc1 [Mubritinib (TAK 165)] | 1 | 0.5 | 0.5 | 4.5
Cc1nc(N)sc1-c1ccnc(Nc2ccc(N3CCOCC3)cc2)n1 | 3 | > 7 | > 7 | > 7
O=C1NC(=NCc2cccs2)S/C1=C\c1ccc2ncccc2c1 | > 7 | > 7 | > 7 | > 7
CCOc1cc2ncc(C#N)c(Nc3ccc(F)c(Cl)c3)c2cc1NC(=O)/C=C/CN(C)C [Pelitinib (EKB-569)] | 4.5 | 1.5 | > 7 | > 7
N#CC[C@H](C1CCCC1)n1cc(-c2ncnc3[nH]ccc23)cn1 | > 7 | > 7 | > 7 | > 7
CCN(CC)CCCC(C)Nc1ccnc2cc(Cl)ccc12 (stereo not given) [Chloroquine Phosphate] | > 7 | 4.5 | > 7 | > 7
CN1CC[C@H](c2c(O)cc(O)c3c(=O)cc(-c4ccccc4Cl)oc23)[C@H](O)C1 [Flavopiridol (Alvocidib)] | 2 | 2 | 6 | > 7
Cc1cc(N2CCOCC2)cc2[nH]c(-c3c(NCC(O)c4cccc(Cl)c4)cc[nH]c3=O)nc12 (stereo not given) | 5 | 1.5 | > 7 | > 7
CC(C)(C)Cn1c(N)nc2ccc(-c3[nH]c(C(C)(C)C)nc3-c3ccc(F)cc3)nc21 | 2 | 6 | > 7 | > 7
Clc1ccc(C2(c3ccc(-c4cn[nH]c4)cc3)CCNCC2)cc1 | 4 | 3.5 | 2.5 | 4.5
CN1CCN(c2nc(C3=C(c4c[nH]c5ccccc45)C(=O)NC3=O)c3ccccc3n2)CC1 [Sotrastaurin] | > 7 | 6 | > 7 | > 7
COc1cc2nccc(Oc3ccc(NC(=O)C4(C(=O)Nc5ccc(F)cc5)CC4)cc3)c2cc1OC | 6 | > 7 | > 7 | > 7
CC(C)Nc1cc(-c2c[nH]c(C(=O)N[C@H](CO)c3cccc(Cl)c3)c2)c(Cl)cn1 | > 7 | > 7 | > 7 | > 7

Compound | time to death of most cells in well [1] | time to death of most cells in well ([2]; screen: 2) | time to death of most cells in well ([2]; screen: 3) | time to death of most cells in well ([2]; screen: 4)
Cc1cc(Nc2nc(N[C@@H](C)c3ncc(F)cn3)ncc2Cl)[nH]n1 | 3 | 5 | > 7 | > 7
Cc1ccc(C(=O)Nc2cccc(C(F)(F)F)c2)cc1Nc1nc(-c2cccnc2)nc2c1cnn2C | 6 | > 7 | > 7 | > 7
O=c1[nH]nc(Sc2ncc([N+](=O)[O-])s2)n1-c1ccc2c(c1)OCCO2 | 3 | 0.5 | 0.5 | 0.5
C[C@@H]1COC(Nc2ccc3ncnc(Nc4ccc(OCc5nccs5)c(Cl)c4)c3c2)=N1 [Varlitinib] | 6 | 4.5 | > 7 | > 7
C[C@@]1(C(=O)Nc2ccc(F)nc2)CCCN1c1nc(Nc2cc(C3CC3)n[nH]2)c2cccn2n1 | 5 | 2 | 6 | > 7
C=CC(=O)Nc1cccc(Nc2nc(Nc3ccc(OCCOC)cc3)ncc2F)c1 | > 7 | > 7 | > 7 | > 7
Nc1nc(N)c(N=O)c(OCC2CCCCC2)n1 | > 7 | > 7 | > 7 | > 7
CCNc1nc(Nc2cc(F)c(C(=O)N3CCOCC3)cc2OC)ncc1C(F)(F)F | 3.5 | 2.5 | 6.5 | > 7
COc1cc(Nc2c(C#N)cnc3cc(OCCCN4CCN(C)CC4)c(OC)cc23)c(Cl)cc1Cl [Bosutinib (SKI-606)] | 3 | 3.5 | > 7 | > 7
Cc1cnc(Nc2ccc(OCCN3CCCC3)cc2)nc1Nc1cccc(S(=O)(=O)NC(C)(C)C)c1 | 2.5 | 2.5 | 2.5 | 1.5
Nc1ncnc2c1c(-c1cnc3[nH]ccc3c1)nn2C1CCCC1 | 6 | 4 | > 7 | > 7
COc1nccc(-c2c(-c3ccc(F)cc3)ncn2C2CCC(O)CC2)n1 (stereo not given) | > 7 | > 7 | > 7 | > 7
S=C(NCc1ccc2c(c1)OCO2)N1CCN(c2ncnc3c2oc2ccccc23)CC1 [Amuvatinib (MP-470)] | 3 | 2 | 0 | > 7
N[C@@H]1CCCN(c2c(/C=C3\SC(=O)NC3=O)cccc2-c2ccccc2)C1 | 5 | > 7 | > 7 | > 7
Cc1cc2c(F)c(Oc3ncnn4cc(OC[C@@H](C)O)c(C)c34)ccc2[nH]1 | > 7 | > 7 | > 7 | > 7
CC(=O)c1c(C)c2cnc(Nc3ccc(N4CCNCC4)cn3)nc2n(C2CCCC2)c1=O | > 7 | > 7 | > 7 | > 7
C=CC(=O)Nc1cccc(Oc2nc(Nc3ccc(N4CCN(C)CC4)cc3)nc3ccsc23)c1 | > 7 | 3.5 | > 7 | > 7
CCn1c(=O)c(-c2ccc(-c3cncs3)cc2Cl)cc2cnc(Nc3ccc(N4CCN(C)CC4)cc3)nc21 | 5.5 | 3.5 | > 7 | > 7
CC1(C)CNc2cc(NC(=O)c3cccnc3NCc3ccncc3)ccc21 [Motesanib Diphosphate (AMG-706)] | > 7 | > 7 | > 7 | > 7
N#CC(=Cc1ccc(O)c(O)c1)C(=O)NCc1ccccc1 [AG-490 (Tyrphostin B42)] | > 7 | > 7 | > 7 | > 7

Compound | time to death of most cells in well [1] | time to death of most cells in well ([2]; screen: 2) | time to death of most cells in well ([2]; screen: 3) | time to death of most cells in well ([2]; screen: 4)
Cc1[nH]c(/C=C2\C(=O)Nc3ccccc32)c(C)c1CCC(=O)O [Orantinib (TSU-68, SU6668)] | > 7 | > 7 | > 7 | > 7
N#Cc1c(Oc2ccc(F)c(NC(=O)Cc3cccc(C(F)(F)F)c3)c2)ccc2nc(NC(=O)C3CC3)sc12 | 2 | 2 | 3.5 | > 7
COc1ccc(N(C(=O)Oc2c(C)cccc2C)c2ccnc(Nc3ccc(N4CCN(C)CC4)cc3)n2)c(OC)c1 | > 7 | > 7 | > 7 | > 7
CO[C@@H](C)Cn1c(=O)n(C)c2cnc3ccc(-c4cncc(C(C)(C)O)c4)cc3c21 | 6 | 4.5 | > 7 | > 7
CC(C)(C)NS(=O)(=O)c1cncc(-c2cc(F)c3nc(N)nn3c2)c1 | 1 | 1.5 | 3.5 | > 7
CCC(=O)Nc1cccc(Oc2nc(Nc3ccc(N4CCN(C)CC4)cc3OC)ncc2Cl)c1 | 5.5 | 2 | 6.5 | 3.5
Nc1ccc(-c2ccc3ncc4ccc(=O)n(-c5cccc(C(F)(F)F)c5)c4c3c2)cn1 [Torin 2] | 3.5 | 3 | 5 | 6
CC1=C(C(=O)Nc2cc3cn[nH]c3cc2F)C(c2ccc(C(F)(F)F)cc2)CC(=O)N1 (stereo not given) | > 7 | 6.5 | > 7 | > 7
CCN1CCN(Cc2ccc(-c3cc4c(N[C@H](C)c5ccccc5)ncnc4[nH]3)cc2)CC1 | 2.5 | 2 | 3 | 4
CCc1cncnc1N1CCN(Cc2nc3ccc(C(F)(F)F)cc3[nH]2)CC1 | > 7 | > 7 | > 7 | > 7
Clc1ccc(Nc2nnc(Cc3ccncc3)c3ccccc23)cc1 [Vatalanib (PTK787) 2HCl] | > 7 | > 7 | > 7 | > 7
Cn1cnc(=N)c2[nH]cnc21 [3-Methyladenine (3-MA)] | > 7 | > 7 | > 7 | > 7
Oc1c(F)cc(-c2cnccc2-c2ccc(N3CCOCC3)cc2)cc1F | 2.5 | 2 | > 7 | > 7
O=c1ccc2ccc(O)c(O)c2o1 [Daphnetin] | 4 | 5 | > 7 | > 7
COc1cc2ncnc(Nc3ccc(O)c(Br)c3)c2cc1OC | > 7 | > 7 | > 7 | > 7
Cn1ncc(Cl)c1-c1cc(C(=O)N[C@H](CN)Cc2ccc(F)c(F)c2)oc1Cl | 4.5 | 4 | > 7 | > 7
CNC(=O)c1ccc(C)c(-n2c(C)cc(OCc3ccc(F)cc3F)c(Br)c2=O)c1 | > 7 | 6 | 6.5 | > 7
O=C1c2ccc(Nc3ccc(F)cc3F)cc2CCc2ccc(OC[C@H](O)CO)cc21 [Skepinone-L] | > 7 | > 7 | > 7 | > 7
CO[C@H]1C[C@@H]2CC[C@@H](C)[C@@](O)(O2)C(=O)C(=O)N2CCCC[C@H]2C(=O)O[C@H]([C@H](C)C[C@@H]2CC[C@@H](OC(=O)C(C)(CO)CO)[C@H](OC)C2)CC(=O)[C@H](C)/C=C(\C)[C@@H](O)[C@@H](OC)C(=O)[C@H](C)C[C@H](C)/C=C/C=C/C=C/1C | 2 | > 7 | > 7 | > 7
COc1cc2c(Oc3ccc4[nH]c(C)cc4c3F)ncnc2cc1OCCCN1CCCC1 [Cediranib (AZD2171)] | 2 | 1.5 | 3 | 1.5
